# The other results are listed elsewhere or left out.
# B1: PhoQ; a variant is named by its letters at X, in order, P23837 (parent)
# chain: MKKLLRLFFPLSLRVRFLLATAAVVLVLSLAYGMVALIGYSVSFDKTTFRLLRGESNLFYTLAKWENNKLHVELPENIDKQSPTMTLIYDENGQLLWAQRDVPWLMKMIQPDWLKSNGFHEIEADVNDTSLLLSGDHSIQQQLQEVREDDDDAEMTHSVAVNVYPATSRMPKLTIVVVDTIPVELKSSYMVWSWFIYVLSANLLLVIPLLWVAAWWSLRPIEALAKEVRELEEHNRELLNPATTRELTSLVRNLNRLLKSERERYDKYRTTLTDLTHSLKTPLXXLQXXLRSLRSEKMSVSDAEPVMLEQISRISQQIGYYLHRASMRGGTLLSRELHPVAPLLDNLTSALNKVYQRKGVNISLDISPEISFVGEQNDFVEVMGNVLDNACKYCLEFVEISARQTDEHLYIVVEDDGPGIPLSKREVIFDRGQRVDTLRPGQGVGLAVAREITEQYEGKIVAGESMLGGARMEVIFGRQHSAPKDE
# Variants of: B1
# Assay: enrichment ratio after two sorts for PhoP signalling (ratio (wild type AVST 3.29)); higher = more functional
# Settings: with PhoP (E. coli)
row,Variant,enrichment ratio
1,VRWK,≤ 0.25
2,TDMK,11.7
3,SLIR,≤ 0.25
4,HKMG,≤ 0.25
5,RIAN,≤ 0.25
6,VQRI,≤ 0.25
7,AQRP,≤ 0.25
8,FCTV,≤ 0.25
9,FDGP,≤ 0.25
10,APND,≤ 0.25
11,NIIA,≤ 0.25
12,SAVH,7.41
13,AICF,13.5
14,LLRF,≤ 0.25
15,QSTW,≤ 0.25
16,IFVP,≤ 0.25
17,VFET,≤ 0.25
18,MVWG,≤ 0.25
19,KKMP,≤ 0.25
20,MRDH,≤ 0.25
21,PMGF,≤ 0.25

row,Variant,enrichment ratio
1,VDPR,0.945
2,KMYG,≤ 0.25
3,MYFE,≤ 0.25
4,RIGE,≤ 0.25
5,GKLD,≤ 0.25
6,STWG,≤ 0.25
7,NHKK,≤ 0.25
8,FGGM,≤ 0.25
9,HTLF,3.27
10,GFKD,≤ 0.25
11,FPAW,≤ 0.25
12,YTYC,≤ 0.25
13,ETKR,≤ 0.25
14,YNPQ,≤ 0.25
15,NITT,≤ 0.25
16,LIDV,≤ 0.25
17,GGNM,≤ 0.25
18,IFSP,≤ 0.25
19,EAMG,≤ 0.25
20,DDVA,≤ 0.25
21,FDRI,≤ 0.25

row,Variant,enrichment ratio
1,MCFK,8.62
2,NNSH,≤ 0.25
3,GGKR,≤ 0.25
4,LYQH,≤ 0.25
5,TCWW,≤ 0.25
6,HHQD,≤ 0.25
7,WYHA,≤ 0.25
8,WVYQ,≤ 0.25
9,YWDI,≤ 0.25
10,AHDF,≤ 0.25
11,IESD,≤ 0.25
12,MTQG,≤ 0.25
13,KRPL,≤ 0.25
14,EDCI,≤ 0.25
15,TCFE,≤ 0.25
16,FMLL,≤ 0.25
17,GDNA,≤ 0.25
18,MKKP,≤ 0.25
19,MHRG,≤ 0.25
20,RMPC,≤ 0.25
21,EGAS,≤ 0.25

row,Variant,enrichment ratio
1,IVCM,6.4
2,FYWK,≤ 0.25
3,KTTF,≤ 0.25
4,LTKC,≤ 0.25
5,NGYR,≤ 0.25
6,HEAC,≤ 0.25
7,TPTL,≤ 0.25
8,NWEP,≤ 0.25
9,TWLH,≤ 0.25
10,WSMS,≤ 0.25
11,MTTP,≤ 0.25
12,AKYI,≤ 0.25
13,YMKS,≤ 0.25
14,EGLN,≤ 0.25
15,KCCD,≤ 0.25
16,VTAP,≤ 0.25
17,WSIY,≤ 0.25
18,RIIV,≤ 0.25
19,EIMS,≤ 0.25
20,LSSW,≤ 0.25
21,FCHQ,≤ 0.25

# From a collection of fitness landscapes (doi:10.1126/science.1257360)
